T1: 5T4-Fc (obtained from Peter L. Stern, University of Manchester) (human, UniProt Q13641 32-355)
T1 construct: also called h5T4-Fc; recombinant 5T4; not shown: Fc part not specified
T1 sequence (looked up): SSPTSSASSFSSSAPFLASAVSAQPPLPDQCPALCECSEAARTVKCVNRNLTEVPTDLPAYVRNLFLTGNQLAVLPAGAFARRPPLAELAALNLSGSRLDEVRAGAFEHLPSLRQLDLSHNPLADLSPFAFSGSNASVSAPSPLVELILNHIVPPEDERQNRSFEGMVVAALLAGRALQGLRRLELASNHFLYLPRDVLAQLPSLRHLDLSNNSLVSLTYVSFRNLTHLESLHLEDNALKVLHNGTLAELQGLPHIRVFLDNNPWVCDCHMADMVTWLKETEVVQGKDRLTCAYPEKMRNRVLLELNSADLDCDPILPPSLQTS

B1: 1200-1208 (bispecific antibody)
chain 1: not shown
chain 2: DIQMTQSPSSLSASVGDRVTITCRASQSISSYLNWYQQKPGKAPKLLIYAASSLQSGVPSRFSGSGSGTDFTLTISSLQPEDFATYYCQQYYIPHTFGQGTKLEIKRTVAAPSVFIFPPSDEQLKSGTASVVCLLNNFYPREAKVQWKVDNALQSGNSQESVTEQDSKDSTYSLSSTLTLSKADYEKHKVYACEVTHQGLSSPVTKSFNRGEC
B2: 1620-1208 (bispecific antibody)
chain 1: not shown
chain 2: DIQMTQSPSSLSASVGDRVTITCRASQSISSYLNWYQQKPGKAPKLLIYAASSLQSGVPSRFSGSGSGTDFTLTISSLQPEDFATYYCQQGVGPYTFGQGTKLEIKRTVAAPSVFIFPPSDEQLKSGTASVVCLLNNFYPREAKVQWKVDNALQSGNSQESVTEQDSKDSTYSLSSTLTLSKADYEKHKVYACEVTHQGLSSPVTKSFNRGEC
B3: 1214-1208 (bispecific antibody)
chain 1: not shown
chain 2: DIQMTQSPSSLSASVGDRVTITCRASQSISSYLNWYQQKPGKAPKLLIYAASSLQSGVPSRFSGSGSGTDFTLTISSLQPEDFATYYCQQDAYPHTFGQGTKLEIKRTVAAPSVFIFPPSDEQLKSGTASVVCLLNNFYPREAKVQWKVDNALQSGNSQESVTEQDSKDSTYSLSSTLTLSKADYEKHKVYACEVTHQGLSSPVTKSFNRGEC
B4: 1206-1202 (bispecific antibody)
chain 1: EVQLLESGGGLVQPGGSLRLSCAASGFTFSGSSMSWVRQAPGKGLEWVSSIYYSGSGTYYADSVKGRFTISRDNSKNTLYLQMNSLRAEDTAVYYCARYGRNVHPYNLDYWGQGTLVTVSS[no letters for human IgG1 constant region with changes]GGGGSGGGGSEVQLLESGGGLVQPGGSLRLSCAASGFTFYGSSMSWVRQAPGKGLEWVSSIYYGSSGTYYADSVKGRFTISRDNSKNTLYLQMNSLRAEDTAVYYCARSYYGYFDYWGQGTLVTVSSGGGGSGGGGSGGGGSDIQMTQSPSSLSASVGDRVTITCRASQSISSYLNWYQQKPGKAPKLLIYAASSLQSGVPSRFSGSGSGTDFTLTISSLQPEDFATYYCQQYYTVVPFTFGQGTKLEIK
chain 2: DIQMTQSPSSLSASVGDRVTITCRASQSISSYLNWYQQKPGKAPKLLIYAASSLQSGVPSRFSGSGSGTDFTLTISSLQPEDFATYYCQQGYYYLPTFGQGTKLEIKRTVAAPSVFIFPPSDEQLKSGTASVVCLLNNFYPREAKVQWKVDNALQSGNSQESVTEQDSKDSTYSLSSTLTLSKADYEKHKVYACEVTHQGLSSPVTKSFNRGEC
B5: 1206-1204 (bispecific antibody)
chain 1: EVQLLESGGGLVQPGGSLRLSCAASGFTFSGSSMSWVRQAPGKGLEWVSSIYYSGSGTYYADSVKGRFTISRDNSKNTLYLQMNSLRAEDTAVYYCARYGRNVHPYNLDYWGQGTLVTVSS[no letters for human IgG1 constant region with changes]GGGGSGGGGSEVQLLESGGGLVQPGGSLRLSCAASGFTFSSYYMGWVRQAPGKGLEWVSGIGSYYGYTGYADSVKGRFTISRDNSKNTLYLQMNSLRAEDTAVYYCARAYYDYNYYYAYFDYWGQGTLVTVSSGGGGSGGGGSGGGGSDIQMTQSPSSLSASVGDRVTITCRASQSISSYLNWYQQKPGKAPKLLIYAASSLQSGVPSRFSGSGSGTDFTLTISSLQPEDFATYYCQQSVPHYPFTFGQGTKLEIK
chain 2: DIQMTQSPSSLSASVGDRVTITCRASQSISSYLNWYQQKPGKAPKLLIYAASSLQSGVPSRFSGSGSGTDFTLTISSLQPEDFATYYCQQGYYYLPTFGQGTKLEIKRTVAAPSVFIFPPSDEQLKSGTASVVCLLNNFYPREAKVQWKVDNALQSGNSQESVTEQDSKDSTYSLSSTLTLSKADYEKHKVYACEVTHQGLSSPVTKSFNRGEC
B6: 1202-1206 (bispecific antibody)
chain 1: EVQLLESGGGLVQPGGSLRLSCAASGFTFYGSSMSWVRQAPGKGLEWVSSIYYGSSGTYYADSVKGRFTISRDNSKNTLYLQMNSLRAEDTAVYYCARSYYGYFDYWGQGTLVTVSS[no letters for human IgG1 constant region with changes]GGGGSGGGGSEVQLLESGGGLVQPGGSLRLSCAASGFTFSGSSMSWVRQAPGKGLEWVSSIYYSGSGTYYADSVKGRFTISRDNSKNTLYLQMNSLRAEDTAVYYCARYGRNVHPYNLDYWGQGTLVTVSSGGGGSGGGGSGGGGSDIQMTQSPSSLSASVGDRVTITCRASQSISSYLNWYQQKPGKAPKLLIYAASSLQSGVPSRFSGSGSGTDFTLTISSLQPEDFATYYCQQGYYYLPTFGQGTKLEIK
chain 2: DIQMTQSPSSLSASVGDRVTITCRASQSISSYLNWYQQKPGKAPKLLIYAASSLQSGVPSRFSGSGSGTDFTLTISSLQPEDFATYYCQQYYTVVPFTFGQGTKLEIKRTVAAPSVFIFPPSDEQLKSGTASVVCLLNNFYPREAKVQWKVDNALQSGNSQESVTEQDSKDSTYSLSSTLTLSKADYEKHKVYACEVTHQGLSSPVTKSFNRGEC
B7: 1202-1208 (bispecific antibody)
chain 1: not shown
chain 2: DIQMTQSPSSLSASVGDRVTITCRASQSISSYLNWYQQKPGKAPKLLIYAASSLQSGVPSRFSGSGSGTDFTLTISSLQPEDFATYYCQQYYTVVPFTFGQGTKLEIKRTVAAPSVFIFPPSDEQLKSGTASVVCLLNNFYPREAKVQWKVDNALQSGNSQESVTEQDSKDSTYSLSSTLTLSKADYEKHKVYACEVTHQGLSSPVTKSFNRGEC
B8: 1204-1208 (bispecific antibody)
chain 1: not shown
chain 2: DIQMTQSPSSLSASVGDRVTITCRASQSISSYLNWYQQKPGKAPKLLIYAASSLQSGVPSRFSGSGSGTDFTLTISSLQPEDFATYYCQQSVPHYPFTFGQGTKLEIKRTVAAPSVFIFPPSDEQLKSGTASVVCLLNNFYPREAKVQWKVDNALQSGNSQESVTEQDSKDSTYSLSSTLTLSKADYEKHKVYACEVTHQGLSSPVTKSFNRGEC
B9: 1204-1206 (bispecific antibody)
chain 1: EVQLLESGGGLVQPGGSLRLSCAASGFTFSSYYMGWVRQAPGKGLEWVSGIGSYYGYTGYADSVKGRFTISRDNSKNTLYLQMNSLRAEDTAVYYCARAYYDYNYYYAYFDYWGQGTLVTVSS[no letters for human IgG1 constant region with changes]GGGGSGGGGSEVQLLESGGGLVQPGGSLRLSCAASGFTFSGSSMSWVRQAPGKGLEWVSSIYYSGSGTYYADSVKGRFTISRDNSKNTLYLQMNSLRAEDTAVYYCARYGRNVHPYNLDYWGQGTLVTVSSGGGGSGGGGSGGGGSDIQMTQSPSSLSASVGDRVTITCRASQSISSYLNWYQQKPGKAPKLLIYAASSLQSGVPSRFSGSGSGTDFTLTISSLQPEDFATYYCQQGYYYLPTFGQGTKLEIK
chain 2: DIQMTQSPSSLSASVGDRVTITCRASQSISSYLNWYQQKPGKAPKLLIYAASSLQSGVPSRFSGSGSGTDFTLTISSLQPEDFATYYCQQSVPHYPFTFGQGTKLEIKRTVAAPSVFIFPPSDEQLKSGTASVVCLLNNFYPREAKVQWKVDNALQSGNSQESVTEQDSKDSTYSLSSTLTLSKADYEKHKVYACEVTHQGLSSPVTKSFNRGEC

This experiment concerns the target T1, 5T4-Fc (obtained from Peter L. Stern, …). As to the kind of experiment: dual ELISA: coated 5T4-Fc, detection with CD137-bio. On the procedure: Plates (#655074, Greiner Bio-One GmbH, Germany) were pre-coated with 0.5 μg/ml 5T4-Fc (obtained from Professor Peter Stern, University of Manchester) overnight. CD137-5T4 bsAb were diluted from 8 to 2×10⁻³ μg/ml in 1:4 dilutions and added in duplicates of 50 μl to each well. CD137-bio (Ancell #502-030) was used as detection antibody at 0.5 μg/ml and the binding was detected with Streptavidin-HRP (Pierce #21126). The ELISA was developed with SuperSignal ELISA PICO Chemiluminescent substrate (Thermo Scientific Pierce, Rockford, Ill. USA) during 2-10 minutes and read in an automated microplate based multi-detection reader (FLUOstar OPTIMA, Netherlands).
(In an ELISA, binding on a coated surface is turned into a signal by an enzyme label.)
In general, EC50 refers to the concentration at which the effect is half-maximal. High values mean lower potency in that assay, low ones higher potency in that assay. B1 registered an EC50 of 16.8 nM.
The result for B2 reads 12.7 nM.
The molecule B3 showed an EC50 of 1.4 nM.
For the molecule B4, the EC50 came out at 0.28 nM.
For the molecule B5, it took 0.66 nM to reach a half-maximal effect (EC50).
In the case of B6, the EC50 was found to be 0.61 nM.
The result for B7 reads 2.25 nM; that for B8, 2.34 nM; that for B9, 0.54 nM.

These data come from patent US20220213213A1 (published 2022).
